Test results as given in patent US6841566B2, “Viral polymerase inhibitors” (Boehringer Ingelheim, Ltd., priority 2001, dated 2005).

Target: hepatitis C virus RNA dependant polymerase (NS5B) (Hepatitis C virus genotype 1b, UniProt P26663)
Test: Inhibition of NS5B RNA dependent RNA polymerase activity (SPA, oligo-U/polyA)
Method: The compounds of the invention were tested for inhibitory activity against the hepatitis C virus RNA dependant polymerase (NS5B), according to the following assay:
The substrates are: • a 12 nucleotide RNA oligo-uridylate (or oligo-uridine-monophosphate) (oligo-U) primer modified with biotin at the free 5′C position; • a complementary poly-adenylate (or adenosine monophosphate) (polyA) template of heterogeneous length (1000-10000 nucleotides); and UTP-[5,6 ^3H].
Polymerase activity is measured as the incorporation of UMP-[5,6 ^3H] into the chain elongated from the oligo-U primer. The ^3H-labelled reaction product is captured by SPA-beads coated with streptavidin and quantified on the TopCount.
The enzyme can be stored at −20° C. in storage buffer (see below).
The biotinylated oligo-U12 primer, the Poly(A) template, and the UTP-[5,6 ^3H] were dissolved in water. The solutions can be stored at −80° C.
Just prior to assay, test compounds of the invention were dissolved in assay buffer containing 15% DMSO.
Just prior to assay, the substrates were mixed in assay buffer to the following concentrations:
Just prior to assay, the RNA polymerase (NS5B) cocktail was prepared in assay buffer to the following specifications:
The assay reaction was performed in a Microfluor™ white “U” bottom plate (Dynatech™ #7105), by successively adding: • 20 μL of test compound cocktail; • 20 μL of substrate cocktail; and • 20 μL of enzyme cocktail (final [NS5B] in assay=10 nM; final [n-dodecyl maltoside] in assay=0.33%; final DMSO in assay=5%).
The reaction was incubated at room temperature for 1.5 hours. STOP solution (20 μL; 0.5 M EDTA, 150 ng/μl tRNA) was added, followed by 30 μl streptavidin coated PVT beads (8 mg/ml in 20 mM Tris-HCl, pH 7.5, 25 mM KCl, 0.025% NaN3). The plate was then shaken for 30 minutes. A solution of CsCl was added (70 μL, 5 M), to bring the CsCl concentration to 1.95 M. The mixture was then allowed to stand for 1 hour. The beads were then counted on a Hewlett Packard TopCount™ instrument using the following protocol: • Data mode: counts per minute • Scintillator: liq/plast • Energy range: low • Efficiency mode: normal • Region: 0-50 • Count delay: 5 minutes • Count time: 1 minute • Expected results: 6000 cpm/well • 200 cpm/well no enzyme control.
Based on the results at ten different concentrations of test compound, standard concentration-% inhibition curves were plotted and analysed to determine IC50's for the compounds of the invention. For some compounds, the IC50 was estimated from two points.

| Compound | IC50 [nM] |
| --- | --- |
| O=C(NC1(C(=O)Nc2ccc3c(C(F)(F)F)cc(=O)oc3c2)CCCC1)c1ccc2c(c1)nc(-c1ccoc1)n2C1CCCCC1 [compound 1029] | 5000 to 25000 |
| COCc1cc(=O)oc2cc(NC(=O)C3(NC(=O)c4ccc5c(c4)nc(-c4ccoc4)n5C4CCCCC4)CCCC3)ccc12 [compound 1030] | 500 to 5000 |
| COC(=O)c1ccc(-c2ccc(NC(=O)C3(NC(=O)c4ccc5c(c4)nc(-c4ccoc4)n5C4CCCCC4)CCCC3)cc2)o1 [compound 1031] | 500 to 5000 |
| C[C@@H](NC(=O)c1ccc2c(c1)nc(-c1ccoc1)n2C1CCCCC1)C(=O)Nc1ccc(-c2ccoc2)cc1 [compound 1032] | 500 to 5000 |
| CCOC(=O)/C=C/c1ccc(NC(=O)C2(NC(=O)c3ccc4c(c3)nc(-c3ccoc3)n4C3CCCCC3)CCCC2)cc1 [compound 1033] | 5000 to 25000 |
| CCOC(=O)c1sc2ccc(NC(=O)C3(NC(=O)c4ccc5c(c4)nc(-c4ccoc4)n5C4CCCCC4)CCCC3)cc2c1C [compound 1034] | 500 to 5000 |
| C[C@@H](NC(=O)c1ccc2c(c1)nc(-c1ccoc1)n2C1CCCCC1)C(=O)Nc1ccc(C2=CC(=O)OC2)cc1 [compound 1035] | 500 to 5000 |
| CSc1nc2ccc(NC(=O)C3(NC(=O)c4ccc5c(c4)nc(-c4ccoc4)n5C4CCCCC4)CCCC3)cc2s1 [compound 1036] | 500 to 5000 |
| O=C(NC1(C(=O)Nc2ccc(Cl)nc2)CCCC1)c1ccc2c(c1)nc(-c1ccoc1)n2C1CCCCC1 [compound 1037] | 500 to 5000 |
| O=C(NC1(C(=O)Nc2ccc3ccc(=O)oc3c2)CCCC1)c1ccc2c(c1)nc(-c1ccoc1)n2C1CCCCC1 [compound 1038] | 500 to 5000 |
| C[S+]([O-])c1nc2ccc(NC(=O)C3(NC(=O)c4ccc5c(c4)nc(-c4ccoc4)n5C4CCCCC4)CCCC3)cc2s1 (centres unmarked) [compound 1039] | 500 to 5000 |
| O=C(O)/C=C/c1ccc(N2CCOCC2)c(NC(=O)C2(NC(=O)c3ccc4c(c3)nc(-c3ccoc3)n4C3CCCCC3)CCCC2)c1 [compound 1040] | 5000 to 25000 |
| O=C(NC1(C(=O)Nc2ccc3c(c2)cc(C(=O)O)n3Cc2ccccc2)CCCC1)c1ccc2c(c1)nc(-c1ccoc1)n2C1CCCCC1 [compound 1041] | 500 to 5000 |
| O=C(NC1(C(=O)Nc2ccc(N3CCOCC3)nc2)CCCC1)c1ccc2c(c1)nc(-c1ccoc1)n2C1CCCCC1 [compound 1042] | 500 to 5000 |
| COC(CC(=O)O)c1ccc(NC(=O)C2(NC(=O)c3ccc4c(c3)nc(-c3ccoc3)n4C3CCCCC3)CCCC2)cc1 (centres unmarked) [compound 1043] | 500 to 5000 |
| O=C(NC1(C(=O)Nc2ccc(C(=O)O)c(Cl)c2)CCCC1)c1ccc2c(c1)nc(-c1ccoc1)n2C1CCCCC1 [compound 1044] | 500 to 5000 |
| COc1ccc(C(=O)O)cc1NC(=O)C1(NC(=O)c2ccc3c(c2)nc(-c2ccoc2)n3C2CCCCC2)CCCC1 [compound 1045] | 500 to 5000 |
| O=C(O)CNC(=O)c1ccc(NC(=O)C2(NC(=O)c3ccc4c(c3)nc(-c3ccoc3)n4C3CCCCC3)CCCC2)cc1 [compound 1046] | 500 to 5000 |
| COc1cc(C(=O)O)ccc1NC(=O)C1(NC(=O)c2ccc3c(c2)nc(-c2ccoc2)n3C2CCCCC2)CCCC1 [compound 1047] | 500 to 5000 |
| O=C(O)c1cc(NC(=O)C2(NC(=O)c3ccc4c(c3)nc(-c3ccoc3)n4C3CCCCC3)CCCC2)cc(C(=O)O)c1 [compound 1048] | 500 to 5000 |
| O=C(NC1(C(=O)Nc2ccc(-c3ccc(O)cc3)cc2)CCCC1)c1ccc2c(c1)nc(-c1ccoc1)n2C1CCCCC1 [compound 1049] | 500 to 5000 |
| O=C(NC1(C(=O)Nc2cc(C(=O)O)n[nH]2)CCCC1)c1ccc2c(c1)nc(-c1ccoc1)n2C1CCCCC1 [compound 1050] | 500 to 5000 |
| O=C(O)CCc1cccc(NC(=O)C2(NC(=O)c3ccc4c(c3)nc(-c3ccoc3)n4C3CCCCC3)CCCC2)c1 [compound 1051] | 500 to 5000 |
| COC(=O)c1cc(NC(=O)C2(NC(=O)c3ccc4c(c3)nc(-c3ccoc3)n4C3CCCCC3)CCCC2)cc(C(=O)O)c1 [compound 1052] | 500 to 5000 |
| CC(NC(=O)c1ccc2c(c1)nc(-c1ccoc1)n2C1CCCCC1)C(=O)Nc1ccc(C(=O)O)cc1 (centres unmarked) [compound 1053] | 500 to 5000 |

| Compound | IC50 [nM] |
| --- | --- |
| CC(NC(=O)c1ccc2c(c1)nc(-c1ccoc1)n2C1CCCCC1)C(=O)Nc1ccc(/C=C/C(=O)O)cc1 (centres unmarked) [compound 1054] | < 500 |
| CC(NC(=O)c1ccc2c(c1)nc(-c1ccoc1)n2C1CCCCC1)C(=O)Nc1cc(C(=O)O)ccc1O (centres unmarked) [compound 1055] | 500 to 5000 |
| C[C@H](NC(=O)c1ccc2c(c1)nc(-c1ccoc1)n2C1CCCCC1)C(=O)Nc1ccc(/C=C/C(=O)O)cc1 [compound 1056] | < 500 |
| C[C@@H](NC(=O)c1ccc2c(c1)nc(-c1ccoc1)n2C1CCCCC1)C(=O)Nc1ccc(/C=C/C(=O)O)cc1 [compound 1057] | < 500 |
| CC(NC(=O)c1ccc2c(c1)nc(-c1ccoc1)n2C1CCCCC1)C(=O)Nc1cccc(OCC(=O)O)c1 (centres unmarked) [compound 1059] | 500 to 5000 |
| CC(NC(=O)c1ccc2c(c1)nc(-c1ccoc1)n2C1CCCCC1)C(=O)Nc1ccc(-c2ccc(C(=O)O)o2)cc1 (centres unmarked) [compound 1060] | < 500 |
| CC(NC(=O)c1ccc2c(c1)nc(-c1ccoc1)n2C1CCCCC1)C(=O)Nc1cccc(-c2ccc(C(=O)O)o2)c1 (centres unmarked) [compound 1061] | < 500 |
| O=C(O)/C=C/c1ccc(NC(=O)C(Cc2ccccc2)NC(=O)c2ccc3c(c2)nc(-c2ccoc2)n3C2CCCCC2)cc1 (centres unmarked) [compound 1062] | 500 to 5000 |
| CCCC(NC(=O)c1ccc2c(c1)nc(-c1ccoc1)n2C1CCCCC1)C(=O)Nc1ccc(/C=C/C(=O)O)cc1 (centres unmarked) [compound 1063] | < 500 |
| O=C(O)/C=C/c1ccc(NC(=O)[C@H](CCO)NC(=O)c2ccc3c(c2)nc(-c2ccoc2)n3C2CCCCC2)cc1 [compound 1064] | 500 to 5000 |
| C[C@@H](NC(=O)c1ccc2c(c1)nc(-c1ccoc1)n2C1CCCCC1)C(=O)Nc1cccc(-c2ccc(C(=O)O)o2)c1 [compound 1065] | < 500 |
| C[C@@H](NC(=O)c1ccc2c(c1)nc(-c1ccoc1)n2C1CCCCC1)C(=O)Nc1ccc(-c2ccc(C(=O)O)o2)cc1 [compound 1066] | < 500 |
| C[C@@H](NC(=O)c1ccc2c(c1)nc(-c1ccoc1)n2C1CCCCC1)C(=O)Nc1ccc(CCC(=O)O)cc1 [compound 1067] | 500 to 5000 |
| O=C(O)/C=C/c1ccc(NC(=O)C2(NC(=O)c3ccc4c(c3)nc(-c3ccoc3)n4C3CCCCC3)CC2)cc1 [compound 1070, (E)-3-(4-{[1-(1-{[1-(1-Cyclohexyl-2-furan-3-yl-1H-benzoimidazol-5-yl)-methanoyl]-amino}-cyclopropyl)-methanoyl]-amino}-phenyl)-acrylic acid] | < 500 |
| O=C(O)/C=C/c1ccc(NC(=O)C2(NC(=O)c3ccc4c(c3)nc(-c3ccoc3)n4C3CCCCC3)CCCC2)cc1 [compound 1071] | < 500 |
| O=C(O)/C=C/c1ccc(NC(=O)C2(NC(=O)c3ccc4c(c3)nc(-c3ccoc3)n4C3CCCCC3)CCCCC2)cc1 [compound 1072] | < 500 |
| C[C@@H](NC(=O)c1ccc2c(c1)nc(-c1ccoc1)n2C1CCCCC1)C(=O)Nc1ccc(SCC(=O)O)cc1 [compound 1073] | 500 to 5000 |
| Cc1oc(-c2cccc(NC(=O)[C@@H](C)NC(=O)c3ccc4c(c3)nc(-c3ccoc3)n4C3CCCCC3)c2)cc1C(=O)O [compound 1074] | 500 to 5000 |
| CC[C@@H](NC(=O)c1ccc2c(c1)nc(-c1ccoc1)n2C1CCCCC1)C(=O)Nc1ccc(/C=C/C(=O)O)cc1 [compound 1075, (E)-3-[4-((R)-2-{[1-(1-Cyclohexyl-2-furan-3-yl-1H-benzoimidazol-5-yl)-methanoyl]-amino}-butanoylamino)-phenyl]-acrylic acid] | < 500 |
| CCC[C@@H](NC(=O)c1ccc2c(c1)nc(-c1ccoc1)n2C1CCCCC1)C(=O)Nc1ccc(/C=C/C(=O)O)cc1 [compound 1076] | 500 to 5000 |
| Cn1c(C(=O)O)cc2cc(NC(=O)C3(NC(=O)c4ccc5c(c4)nc(-c4ccoc4)n5C4CCCCC4)CCCC3)ccc21 [compound 1077] | < 500 |
| O=C(NC1(C(=O)Nc2ccc3nc(S)sc3c2)CCCC1)c1ccc2c(c1)nc(-c1ccoc1)n2C1CCCCC1 [compound 1078] | 500 to 5000 |
| O=C(O)/C=C/c1ccc(NC(=O)CNC(=O)c2ccc3c(c2)nc(-c2ccoc2)n3C2CCCCC2)cc1 [compound 1079] | < 500 |
| O=C(NC1(C(=O)Nc2ccc(-c3ccc(C(=O)O)o3)cc2)CCCC1)c1ccc2c(c1)nc(-c1ccoc1)n2C1CCCCC1 [compound 1080] | < 500 |
| O=C(NC1(C(=O)Nc2ccc3[nH]c(C(=O)O)cc(=O)c3c2)CCCC1)c1ccc2c(c1)nc(-c1ccoc1)n2C1CCCCC1 [compound 1081] | < 500 |
